Source: the supplement of paper PMC4206461
The list shows a part of the results.

tested on: Pseudomonas aeruginosa PA14 dppA1-A5 penta deletion mutant; assay: respiration area under curve with compound as sole nitrogen source, 24 h (OmniLog AUC (arbitrary units)); higher = more respiration / better utilisation as nitrogen source, active = 2000 or more; extreme values may be limits of the assay; conditions: plate: PM6
Procedure: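 Biolog Phenotype MicroArray plates PM6-PM8: each di/tripeptide is the sole nitrogen source. Tetrazolium reduction was read in the OmniLog for 24 h at 37°C and summarised as area under the respiration curve (arbitrary units). Values below 2000 count as no respiration.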

SMILES	respiration area under curve
CC[C@H](C)[C@H](N)C(=O)N[C@H](C(=O)O)C(C)C	active: 2490
NCC(=O)N1CCC[C@H]1C(=O)O	inactive: 0
CC(C)C[C@H](N)C(=O)NCC(=O)O	active: 6030
CC[C@H](C)[C@H](N)C(=O)N[C@@H](CCC(N)=O)C(=O)O	inactive: 1530
NCC(=O)NCC(=O)O	inactive: 293
N[C@@H](CCC(=O)O)C(=O)N[C@@H](CC(=O)O)C(=O)O	inactive: 0
C[C@H](N)C(=O)N1CCC[C@H]1C(=O)O	inactive: 889
CC(C)[C@H](NC(=O)[C@@H](N)CC(N)=O)C(=O)O	active: 5760
NCC(=O)N[C@@H](Cc1ccc(O)cc1)C(=O)O	inactive: 480
CC[C@H](C)[C@H](N)C(=O)N[C@@H](Cc1c[nH]c2ccccc12)C(=O)O	inactive: 1630
NC(=O)C[C@H](N)C(=O)N[C@@H](CCC(=O)O)C(=O)O	active: 2120
CC(C)[C@H](NC(=O)[C@@H](N)CCCN=C(N)N)C(=O)O	active: 8810

same assay, conditions: plate: PM7

SMILES	respiration area under curve
CC(C)CC(N)C(=O)NC(Cc1c[nH]c2ccccc12)C(=O)O (configuration not stated)	active: 8290
CSCC[C@H](N)C(=O)N[C@@H](Cc1ccccc1)C(=O)O	inactive: 417
CSCCC(N)C(=O)NC(CCSC)C(=O)O (configuration not stated)	inactive: 0
NC(=O)CC[C@H](NC(=O)[C@@H](N)Cc1ccc(O)cc1)C(=O)O	active: 11500
CC(C)[C@H](N)C(=O)N[C@@H](CC(=O)O)C(=O)O	inactive: 536
N[C@@H](CO)C(=O)N[C@@H](Cc1ccccc1)C(=O)O	active: 2000
N[C@@H](CO)C(=O)NCC(=O)O	active: 2330
N[C@@H](Cc1ccc(O)cc1)C(=O)N[C@@H](CCC(=O)O)C(=O)O	inactive: 757
C[C@H](NC(=O)[C@@H](N)Cc1ccc(O)cc1)C(=O)O	active: 9760
CC(C)[C@H](N)C(=O)N[C@@H](Cc1ccc(O)cc1)C(=O)O	active: 6310
C[C@@H](O)[C@H](N)C(=O)NCC(=O)O	inactive: 170
C[C@@H](O)[C@H](N)C(=O)N[C@@H](CCC(=O)O)C(=O)O	inactive: 2.14

same assay, conditions: plate: PM8

SMILES	respiration area under curve
CC[C@H](C)[C@H](NC(=O)[C@@H]1CCCN1)C(=O)O	inactive: 337
C[C@H](N)C(=O)N[C@@H](CC(=O)O)C(=O)O	active: 2130
CCC(C)C(N)C(=O)NC(CC(N)=O)C(=O)O (configuration not stated)	inactive: 809
N[C@@H](Cc1ccccc1)C(=O)N[C@@H](Cc1ccc(O)cc1)C(=O)O	inactive: 1170
CC(C)C[C@@H](N)C(=O)N[C@@H](Cc1ccc(O)cc1)C(=O)O	inactive: 39
O=C(O)[C@H](CO)NC(=O)[C@@H]1CCCN1	inactive: 371
C[C@H](NC(=O)CCN)C(=O)O	inactive: 0
C[C@@H](O)[C@H](N)C(=O)N[C@@H](CO)C(=O)O	inactive: 108
